Measured values: the antibiotic and cytotoxicity screens of Wong et al. (2023)
Some of the results follow.

test system: HepG2; assay: cytotoxicity call (relative viability < 0.9); conditions: 10 µM

SMILES | cytotoxicity call
C[C@H]1CCCCO[C@H](CN(C)S(=O)(=O)c2ccc(F)cc2)[C@@H](C)CN([C@@H](C)CO)C(=O)c2cc(NC(=O)NC3CCCCC3)ccc2O1 | inactive
Cc1ccc(S(=O)(=O)N(C)C[C@@H]2Oc3ccc(NS(=O)(=O)c4ccc(F)cc4)cc3CC(=O)N([C@@H](C)CO)C[C@@H]2C)cc1 | inactive
C[C@@H]1CN([C@H](C)CO)C(=O)c2cccc(NC(=O)Nc3ccc(C(F)(F)F)cc3)c2O[C@H]1CN(C)C(=O)Nc1ccc(C(F)(F)F)cc1 | inactive
CCS(=O)(=O)NCC[C@@H]1CC[C@@H](NC(=O)Cc2ccccn2)[C@H](CO)O1 | inactive
O=C(O)CN1Cc2ccccc2C1=O | inactive
C[C@@H]1C(=O)O[C@H]2[C@H](O)[C@@]34[C@H]5C[C@@H](C(C)(C)C)[C@]36[C@@H](OC(=O)[C@@H]6O)O[C@@]4(C(=O)O5)[C@@]12O | inactive
C[C@H]1CN([C@@H](C)CO)C(=O)Cc2cc(NC(=O)Cn3cnnn3)ccc2O[C@H]1CN(C)S(=O)(=O)c1cn(C)cn1 | inactive
C[C@@H]1CN([C@@H](C)CO)S(=O)(=O)c2ccc(C#CCN(C)C)cc2O[C@@H]1CN(C)C(=O)CN(C)C | inactive
C[C@@H]1CN([C@@H](C)CO)C(=O)c2cc(NS(C)(=O)=O)ccc2O[C@H]1CN(C)Cc1ccc2c(c1)OCO2 | inactive
Cc1ccc(S(=O)(=O)Nc2cccc3c2O[C@H](CN(C)Cc2ccc(Cl)c(Cl)c2)[C@@H](C)CN([C@H](C)CO)C3=O)cc1 | inactive
Cc1noc(C)c1NC(=O)Nc1ccc2c(c1)CC(=O)N([C@H](C)CO)C[C@H](C)[C@@H](CN(C)S(=O)(=O)c1ccccc1)O2 | inactive
COCC(=O)Nc1ccc2c(c1)C(=O)N(C)C[C@@H](OC)[C@H](C)CN(C(=O)c1ccccc1F)[C@H](C)CO2 | inactive
C[N+](C)(C)CCCCNC(=O)[C@@H]1C[C@@H]2C(=O)NCC(=O)N2[C@@H]1c1ccc(O)cc1 | inactive
C[C@@H]1CN([C@H](C)CO)C(=O)c2cccc(NC(=O)CCCCCC(=O)Nc3ccccc3N)c2O[C@H]1CN(C)C(=O)Nc1ccccc1 | inactive
C[C@H]1CN([C@@H](C)CO)C(=O)c2cc(C#CC3(O)CCCC3)cnc2O[C@@H]1CN(C)C(=O)C1CCOCC1 | inactive
O=c1ccc2cc3ccoc3cc2o1 | inactive
Cl.c1ccc2c(CC3=NCCN3)cccc2c1 | inactive
Cc1noc(C)c1NC(=O)N(C)C[C@@H]1OCCCC[C@@H](C)Oc2ccc(NS(=O)(=O)c3ccccc3)cc2C(=O)N([C@H](C)CO)C[C@H]1C | inactive

SMILES | cytotoxicity call
NC[C@](O)(c1cccs1)C1CC1 | inactive
C[C@@H]1CCCCO[C@H](CN(C)Cc2ccccc2)[C@H](C)CN([C@H](C)CO)C(=O)c2cc(NC(=O)Cc3ccccc3)ccc2O1 | inactive
C[C@H](CO)N1C[C@H](C)[C@@H](CN(C)S(=O)(=O)c2cn(C)cn2)Oc2ccc(NS(C)(=O)=O)cc2CC1=O | inactive
C[C@@H]1CCCCO[C@@H](CN(C)C(=O)c2ccccc2)[C@@H](C)CN([C@H](C)CO)C(=O)c2cc(NS(=O)(=O)c3ccc(F)cc3)ccc2O1 | inactive
CN(C)CC(=O)N[C@@H]1CC[C@@H](CCNC(=O)C2CC2)O[C@H]1CO | inactive
C[C@@H]1CN([C@@H](C)CO)C(=O)c2cc(NC(=O)Nc3ccc4c(c3)OCO4)ccc2O[C@H]1CN(C)Cc1ccc(-c2ccccc2)cc1 | active
c1ccc(-n2ncc3c2ncn2nnnc32)cc1 | inactive
C=CCOC(=O)N(C)C[C@@H]1OCCCC[C@H](C)Oc2ccc(NC(=O)Nc3ccccc3)cc2C(=O)N([C@@H](C)CO)C[C@H]1C | inactive
CCCNC(=O)N(C)C[C@@H]1Oc2ncc(-c3ccc(C(=O)N(C)C)cc3)cc2C(=O)N([C@H](C)CO)C[C@@H]1C | inactive
C[C@H]1CN([C@@H](C)CO)C(=O)Cc2cc(NS(C)(=O)=O)ccc2O[C@@H]1CN(C)S(C)(=O)=O | inactive
COc1cccc(NC(=O)N(C)C[C@@H]2OCc3ccccc3-c3c(n(C)c4ccccc34)C(=O)N([C@H](C)CO)C[C@H]2C)c1 | inactive
COCCOC(=O)N1C(=O)[C@@]2(c3cc(C#Cc4ccc(OC)cc4)ccc31)[C@H](c1ccc(O)cc1)N1[C@H](c3ccccc3)[C@H](c3ccccc3)OC(=O)[C@H]1[C@@H]2C(N)=O | inactive
COc1cccc(S(=O)(=O)N(C)C[C@H]2Oc3cc(C#CCN(C)C)ccc3S(=O)(=O)N([C@H](C)CO)C[C@@H]2C)c1 | inactive
O=C(O)C(O)C(O)C(=O)O.OCc1cccnc1 (stereo not given) | inactive
Cc1noc(C)c1NC(=O)Nc1ccc2c(c1)C(=O)N([C@H](C)CO)C[C@H](C)[C@H](CN(C)C(=O)Nc1ccc(C(F)(F)F)cc1)O2 | inactive
CS(=O)(=O)c1ccc(C(O)C(CF)NC(=O)C(Cl)Cl)cc1 (stereo not given) | inactive
COc1cc(N2CC[C@H]3O[C@@H](C(=O)NCCN(C)C)C[C@H]32)ncn1 | inactive
